The campaign covered roughly 110,000 compounds. About 230 (0.21%) showed an effect of 50% or more. This is one part of the list.
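Further: 30 min substrate incubation versus DMSO and 10 µM JCP410 controls.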

The target in this assay is DPAP1 (Plasmodium falciparum, UniProt Q8IIJ9). Kind of assay: primary screen, percent inhibition; read by cleavage of a fluorogenic dipeptide substrate; higher = more effect of the substance. Also noted: species or system P. falciparum D10 trophozoite lysates; single well.
Sequence of DPAP1 (Q8IIJ9 whole entry, looked up): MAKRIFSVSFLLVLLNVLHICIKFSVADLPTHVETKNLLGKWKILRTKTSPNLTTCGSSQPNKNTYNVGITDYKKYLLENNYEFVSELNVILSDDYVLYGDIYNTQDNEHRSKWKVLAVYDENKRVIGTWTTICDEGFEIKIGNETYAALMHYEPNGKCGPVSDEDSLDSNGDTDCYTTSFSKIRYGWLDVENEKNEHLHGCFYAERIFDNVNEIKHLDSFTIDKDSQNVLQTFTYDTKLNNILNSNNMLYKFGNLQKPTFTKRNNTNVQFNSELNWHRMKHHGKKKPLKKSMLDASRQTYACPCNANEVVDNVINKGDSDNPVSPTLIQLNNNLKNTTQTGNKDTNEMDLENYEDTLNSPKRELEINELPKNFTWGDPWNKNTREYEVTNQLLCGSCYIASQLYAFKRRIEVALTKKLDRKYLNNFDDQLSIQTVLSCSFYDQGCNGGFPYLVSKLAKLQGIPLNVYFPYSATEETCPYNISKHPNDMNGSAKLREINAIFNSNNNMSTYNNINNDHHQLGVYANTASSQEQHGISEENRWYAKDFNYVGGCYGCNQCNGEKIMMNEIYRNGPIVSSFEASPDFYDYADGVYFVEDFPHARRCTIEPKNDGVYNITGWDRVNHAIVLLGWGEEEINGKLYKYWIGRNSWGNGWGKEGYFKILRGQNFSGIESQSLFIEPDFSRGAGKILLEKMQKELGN
In the case of `Cl/C(=C\c1ccccc1)CN1CCN(c2cccc(Cl)c2)CC1`, the “% Inhibition @ 10 uM” value is -0.603%.
As for `O=C(Nc1cc([N+](=O)[O-])ccc1Cl)c1cccc(C(=O)Nc2cc([N+](=O)[O-])ccc2Cl)c1`, the figure is -7.02%; as for `O=C1c2cccc3c(NC(CO)(CO)CO)ccc(c23)C(=O)N1c1cccc(Cl)c1`, -2.63%.
For `CC(C)C[C@H](NC(=O)c1ccc(NC(=O)NCc2ccncc2)cc1)C(=O)NCC#N`, the “% Inhibition @ 10 uM” value is on record as -2.35%.
With `COc1ccc(C2Oc3ccccc3C3CC(c4ccc(C)o4)=NN32)cc1OC` (stereo not drawn), the “% Inhibition @ 10 uM” value is -6.71%.
As for `Cc1sc(NC(=O)c2ccc(Cl)cc2)c(C(=O)O)c1C`, the figure is -3.58%; as for `COc1cccc(-c2cn3c(n2)sc2cc(C(=O)NCCCN4CCOCC4)ccc23)c1`, 5.11%.
As for `Cc1onc(-c2ccccc2)c1C(=O)NCCCN(C)C`, the figure is -5.3%; as for `O=C(NC1(C(F)(F)F)C(=O)Nc2c1c(=O)[nH]c(=O)n2CCc1ccccc1)C1CCCCC1` (stereo not drawn), -1.18%.
To `O=C1CC(N2CCN(Cc3ccc4c(c3)OCO4)CC2)C(=O)N1c1ccc(Br)cc1` (stereo not drawn) belongs -1.65%; to `O=C1c2ccncc2C(=O)N1c1ccc(Cl)cc1`, -3.57%; to `Cc1cccc(C)c1OCCCn1ccnc1`, 1.87%.
Consider `O=C(N[C@H](/C=C/S(=O)(=O)c1ccccc1)CCc1ccccc1)[C@H](Cc1ccccc1)NC(=O)N1CCC(N2CCOCC2)CC1`, for which the “% Inhibition @ 10 uM” value is given as -4.72%.
To `CCOc1cc(C2C(C#N)=C(N)Oc3[nH]nc(-c4cccs4)c32)ccc1OC` (stereo not drawn) belongs 0.658%.
To `C=CCNC(=O)/C=C/c1ccc(C(C)C)cc1` belongs -6.06%; to `O=C(c1cc2ccccc2oc1=O)N(Cc1cccc(F)c1)C1CCS(=O)(=O)C1` (stereo not drawn), -6.85%.
Regarding `CC(C)C[C@H](NC(=O)c1ccc(NC(=O)OC[C@H]2CCCN2C)cc1)C(=O)NCC#N`, the “% Inhibition @ 10 uM” value was 16%.
To `CCCCSc1nc(N)c2c3c(sc2n1)CCCC3` belongs -2.2%; to `CCc1c(O)nc(SCC(=O)N(CC)CC)n(C2CCCCC2)c1=O`, -0.292%.
As for `O=C(/C=C/c1ccc2c(c1)OCO2)Nc1cccc(C(F)(F)F)c1`, the figure is 4.54%; as for `COc1ccc(-c2nc3ccccn3c2NC(=O)C(C)C)cc1`, 2.17%; as for `CCc1ccc(S(=O)(=O)c2nnn3c2nc(NCc2ccccc2)c2sccc23)cc1`, -5.88%.
Turning to `Cc1ccc(C(=O)Nc2ccc(Oc3ccc(C(=O)O)c(C(=O)O)c3)cc2)cc1C`, the “% Inhibition @ 10 uM” value is given as -2.05%.
As for `CCC(C)(C)C1CCC2(CC1)NC(CO)(CO)CO2` (stereo not drawn), the figure is -1.1%.
As for `Cc1cc(NC(=O)c2ccc(N3C(=O)C4C5C=CC(C5)C4C3=O)cc2)no1` (stereo not drawn), the figure is 13.9%.
For `CCO/C(O)=C1/C(C)=Nc2nc(C)nn2C1c1ccc(C)cc1` (stereo not drawn), the “% Inhibition @ 10 uM” value is on record as -4.66%.
As for `Cc1ccc2c(C(=O)CNc3nncs3)c(C)[nH]c2c1`, the figure is 0.146%; as for `CC(=O)OCC12COC(c3ccccc3)C(C(C)=CC1C)C2C` (stereo not drawn), 0.565%; as for `Cc1cc(C)c2c(cnn2CC(=O)N2CCCCC2)c1`, -4.71%.
As for `N=C(NOS(=O)(=O)c1ccc(Cl)cc1)c1ccccn1`, the figure is 1.63%; as for `CCCOc1ccc(C(=O)C2=C(O)C(=O)N(CCCN3CCOCC3)C2c2ccc(F)cc2)cc1C` (stereo not drawn), -3.75%.
To `O=C1N=C(N2CCCCC2)CN1c1ccccc1` belongs -4.35%; to `Cc1nn2c(O)cc(-c3ccccc3)nc2c1-c1ccccc1`, -4.78%; to `Cc1ccccc1C1CC(=O)NC(SCC(=O)NCc2ccccc2)=C1C#N` (stereo not drawn), -2.37%.
Consider `CC1(C)Cc2ccccc2/C(=C/C(=O)N2CCCCCC2)N1`, for which the “% Inhibition @ 10 uM” value is given as 16.9%.
Turning to `CN1CCC(N(C)Cc2ccc3c(c2)OCO3)CC1`, the “% Inhibition @ 10 uM” value is recorded as 2.03%.
To `CCCCC(=O)NC1(C(F)(F)F)C(=O)Nc2c1c(=O)[nH]c(=O)n2Cc1ccco1` (stereo not drawn) belongs 3.99%; to `CCN(CC)CCCNC(=O)c1ccc(OC)cc1`, -3.16%; to `COCCCNC(=O)c1cc2cc3cc(OC)ccc3nc2o1`, 0.208%.
Consider `COc1ccccc1/N=C1\SC(C(=O)Nc2ccccc2OC)CC(=O)N1C` (stereo not drawn), for which the “% Inhibition @ 10 uM” value is listed as 0.385%.
As for `COc1ccc(-c2cc(N3CCOCC3)c3cc(OC)c(OC)cc3c2)cc1OC`, the figure is -2.35%; as for `COCCNC(=O)Cn1nc(C)n2c(cc3c(OC)cccc32)c1=O`, -3.47%; as for `CCc1nc2ccc(C(=O)NCCCN3CCN(C4CCCCC4)CC3)cc2nc1CC`, 7.76%.
To `CN1C2CCC1/C(=C\c1ccccc1F)C(=O)/C2=C/c1ccccc1F` belongs -6.4%; to `Cc1cc(O)nc(SCc2cccc3ccccc23)n1`, -1.59%; to `Cc1nn(CC(=O)NC(C)C)c(=O)c2nn(-c3ccccc3)c(C)c12`, 1.28%.
As for `C(=C\c1nn2c(Cc3ccccc3)nnc2s1)/c1ccccc1`, the “% Inhibition @ 10 uM” value stood at 46.3%.
As for `Cc1ccccc1OCC(O)Cn1c(N2CCNCC2)nc2c1c(=O)n(C)c(=O)n2C` (stereo not drawn), the figure is 8.09%; as for `CCOc1ccccc1C(=O)Nc1ccc(Br)cc1F`, -1.61%.
To `CCOc1cc(Cl)c2noc3c2c1C(=O)c1ccccc1-3` belongs -4.04%; to `COCC(C)NC(=O)CSc1nc(-c2ccc(OC)c(OC)c2)cc(C(F)(F)F)n1` (stereo not drawn), 40.7%.
As for `O=C(Nc1ccc(NC(=O)C(F)(F)F)cc1)c1ccco1`, the figure is -1.07%.
For `CCOc1ccccc1N1CCN(Cc2ccc(F)cc2F)CC1`, the “% Inhibition @ 10 uM” value is reported as -9.66%.
To `CCCCNC(=O)c1cc2c(=O)oc3ccccc3c2s1` belongs 5.4%; to `CC(C)(C)C1CCc2c(sc3nnn(Cc4ccccc4)c(=O)c23)C1` (stereo not drawn), 4%; to `C=CCNC(=O)COc1c(C)cc(Br)cc1C`, -4.97%.
As for `Cc1c(C(=O)O)sc2nc3n(c(=O)c12)CCC(C)CC3` (stereo not drawn), the figure is -1.7%.
As for `Cc1ccc(Cl)c(OCC(O)Cn2cnc3ccccc32)c1` (stereo not drawn), the figure is 1.67%.
`N=C1/C(=C\c2cccn2Cc2ccccc2F)C(=O)N=C2SC(N3CCCC3)=NN12`: the “% Inhibition @ 10 uM” value came out at 1.72%.
To `CCCC(=O)Nc1nnc(-c2ccccc2Cl)s1` belongs 8.74%.
To `COc1ccc(N(CC(=O)Nc2ccc(C)cc2)S(=O)(=O)c2ccccc2)cc1OC` belongs 3.17%.
For `CC(NC(=O)Cn1ncc2c3ccccc3n(C)c2c1=O)C12CC3CC(CC(C3)C1)C2` (stereo not drawn), the “% Inhibition @ 10 uM” value is given as -0.23%.
As for `COc1ccc(C2C(C#N)=C(N)Oc3c2ccc2ccccc32)cc1Br` (stereo not drawn), the figure is 3.27%.

These data come from publication PMC6919601, “Identification of Plasmodium dipeptidyl aminopeptidase allosteric inhibitors by high throughput screening” (PLoS ONE, 2019).
